Holding throughout (test): ALDHbr (CSC) cell proportion score relative to DMSO vehicle (ratio to DMSO); breast (SUM159) / gastric (MKN45) / pancreatic (PANC1) / colon cancer lines; ALDHbr cells have high ALDH activity and are rich in cancer stem cells (CSC); higher = more CSC (ALDHbr) cells remaining
Holding throughout (conditions): 10 µM; 72 h

The test system of experiment [1] is MKN45.
Experiment [2] concerns PANC1.
Experiment [3] has as its system SUM159.
The subject of experiment [4] is T84.

This is an account of results in the supplement of paper PMC11880418.

Where a name gives a salt, the structure may show the parent alone. Some of the results follow. The data scatter; read single values as rough.
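Further: High-content imaging of ALDEFLUOR-stained cells with Hoechst-labelled nuclei in 384-well plates, triplicate wells, scored as Z-score against 0.1% DMSO vehicle, negative meaning fewer ALDHbr cells.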

On to `CC(C)CC(N(C)C)C1(c2ccc(Cl)cc2)CCC1` (stereo unspecified) [Sibutramine hydrochloride], for which the ALDHbr in experiment [1] was 1.03; in experiment [2], 0.91; in experiment [3], 1.14; in experiment [4] it was 0.995.

In the case of `C[C@]12CC[C@@H](O)C[C@@H]1CC[C@@H]1[C@@H]2CC[C@]2(C)C(=O)CC[C@@H]12` [Androsterone], the ALDHbr was 0.87 in experiment [1], 0.884 in experiment [2], 1.12 in experiment [3] and 1.1 in experiment [4].

Turning to `CC(=O)[C@H]1CC[C@H]2[C@@H]3CC[C@H]4C[C@H](O)CC[C@]4(C)[C@H]3C(=O)C[C@]12C` [Alfaxalone], the ALDHbr in experiment [1] stood at 1.06; in experiment [2], 0.906; in experiment [3], 0.929; in experiment [4], 0.976.

With `CN1CCC2(C)c3cc(O)ccc3N(C)C12` (single isomer, unassigned; (-)) [(-)-Eseroline fumarate salt], the ALDHbr in experiment [1] was determined as 1.17; in experiment [2], 0.772; in experiment [3], 0.716; in experiment [4], 0.828.

Turning to `O=C(NCNC(=O)NC1C(=O)NC(=O)N1CO)NC1C(=O)NC(=O)N1CO` (stereo unspecified) [Imidurea], the ALDHbr in experiment [1] is 1.1; in experiment [2], 1; in experiment [3], 1.23; in experiment [4], 0.912.

On to `CN1[C@@H]2CC[C@H]1C[C@@H](OC(=O)C(CO)c1ccccc1)C2` (stereo partly specified) [Atropine sulfate monohydrate], for which the ALDHbr in experiment [1] is 1.33; in experiment [2], 0.954; in experiment [3], 1.04; in experiment [4] it was 1.15.

For the compound `CC[C@@H](CO)NC(=O)[C@@H]1C=C2c3cccc4[nH]cc(c34)C[C@H]2N(C)C1` [Methylergometrine maleate], the ALDHbr was 0.986 in experiment [1], 0.911 in experiment [2], 1.05 in experiment [3] and 0.784 in experiment [4].

Turning to `C[C@]12CC[C@@H](O)C[C@H]1CC[C@@H]1[C@@H]2CC[C@]2(C)C(=O)CC[C@@H]12` [3-alpha-Hydroxy-5-beta-androstan-17-one], the ALDHbr in experiment [1] was found to be 0.834; in experiment [2], 0.751; in experiment [3], 1.14; in experiment [4] it was 0.927.

With `C[N+]1(C)CCCC(OC(=O)C(O)(c2ccccc2)c2ccccc2)C1` (stereo unspecified) [Mepenzolate bromide], the ALDHbr in experiment [1] was determined as 0.894; in experiment [2] it was 0.998; in experiment [3], 0.904; in experiment [4] it was 0.854.

Turning to `COc1ccc(Cc2nccc3cc(OC)c(OC)cc23)cc1OC` [Papaverine hydrochloride], the ALDHbr in experiment [1] came to 1.2; in experiment [2] it was 0.932; in experiment [3], 1.65; in experiment [4] it was 0.801.

Consider `CC(C)N(CCC(C(N)=O)(c1ccccc1)c1ccccn1)C(C)C` (stereo unspecified) [Disopyramide], for which the ALDHbr in experiment [1] is 1.27; in experiment [2], 0.782; in experiment [3], 1.16; in experiment [4], 0.971.

As to `Clc1ccc(C(OCCN2CCCCC2)c2ccccc2)cc1` (stereo unspecified) [Cloperastine hydrochloride], the ALDHbr in experiment [1] came to 0.9; in experiment [2], 1.16; in experiment [3], 0.88; in experiment [4], 0.6.

`CCC1(c2ccc(N)cc2)CCC(=O)NC1=O` (stereo unspecified) [Glutethimide, para-amino]: the ALDHbr was determined as 0.976 in experiment [1], 0.846 in experiment [2], 0.872 in experiment [3] and 0.915 in experiment [4].

On to `NCC(CC(=O)O)c1ccc(Cl)cc1` (racemic) [Baclofen (R,S)], for which the ALDHbr came out at 0.905 in experiment [1], 0.79 in experiment [2], 0.869 in experiment [3] and 0.958 in experiment [4].
